Here are results for 86 compounds from ChEMBL document CHEMBL4888484, “Replenishing the malaria drug discovery pipeline: Screening and hit evaluation of the MMV Hit Generation Library 1 (HGL1) against asexual blood stage Plasmodium falciparum ,using a nano luciferase reporter read-out” (2022).

The structures appear in SMILES notation. About 540 (0.36%) of roughly 150,000 compounds showed an effect of 50% or more. The list shows a part of the results.

One may read the % Inhibition as the change of the read-out against control, counted positive when it falls.

The test system of the experiment is Plasmodium falciparum. The experiment can be described thus: Primary screen in NF54 nanoGlo assay, in single point, at 2uM, 72h; a lower Z score goes with more inhibition. Type of experiment: functional, Erythrocyte. To be noted: timepoint 72 hour.
For the compound `O=C(Nc1ccc(S(=O)(=O)NCc2cccnc2)cc1)N1CCCC1`, the “% Inhibition” value was -13% and the Z score is 2.65.
As to `COCCN(C(=O)CCCN1C(=O)c2ccccc2C1=O)c1ccc(C(F)(F)F)cn1`, the “% Inhibition” value came to 7% and the Z score was -0.91.
`CCc1ccc(C(=O)NCc2nc(C)cs2)s1`: the “% Inhibition” value is -4% and the Z score was found to be 0.58.
In the case of `O=C(NCC1(CCO)CC1)c1ccc(Oc2cccc(Cl)c2Cl)nc1`, the “% Inhibition” value is on record as -8% and the Z score was 0.98.
With `Cc1nncn1CCN(C)Cc1ccccc1Cl`, the “% Inhibition” value is -2% and the Z score was determined as 0.3.
For `O=C([C@H]1CC(=O)N(c2ccc(F)cc2)C1)N1CC(CF)C1`, in that order: -25% and 2.87.
On the same counts, the results for `COc1nccc(NC(=O)N2CCC(O)(Cc3ccccc3OC)CC2)n1` are -28% and 3.26.
For the compound `COCCNC(=O)C1Cc2cc(C(F)(F)F)ccc2N2CCN(CC(=O)N3CCOCC3)CC12` (configuration not stated), the “% Inhibition” value is reported as -5% and the Z score is given as 0.86.
With `CCc1nc(C)c(C(=O)NCc2nccn2C(C)C)o1`, the “% Inhibition” value was -5% and the Z score is on record as 0.83.
On the same counts, the results for `Cc1ccc(C(=O)N2CC(N3C(=O)CNC3=O)C2)c(C)c1` are -6% and 1.12.
Regarding `CCc1cc(N2CCC(NC[C@@]3(C)CCCO3)CC2)nc(N(C)C)n1`, the “% Inhibition” value is reported as -11% and the Z score is on record as 1.74.
As to `OC[C@@]1(CCc2ccccc2)CCCN(c2ccc3ccccc3n2)C1`, the “% Inhibition” value was -5% and the Z score was 0.79.
For the compound `COc1cc(OC)nc(N(C)Cc2cn(C)nc2C)n1`, the “% Inhibition” value came out at 5% and the Z score is reported as -0.59.
In the case of `CCN(C(=O)Nc1ccc(C2CCCCC2)cc1)[C@H]1CCS(=O)(=O)C1`, the “% Inhibition” value was -19% and the Z score worked out at 1.93.
Regarding `CCCN(CC(=O)N(C)C)Cn1nc(C(C)(C)C)oc1=S`, the “% Inhibition” value is recorded as -6% and the Z score is 0.77.
On to `O=C1CC[C@@H](C(=O)Nc2cccc(S(=O)(=O)N3CCOCC3)c2)N1`, for which the “% Inhibition” value is listed as -6% and the Z score amounted to 0.88.
For `Cc1noc(C)c1C[C@H](C)Nc1ccnc(C(C)C)n1`, the “% Inhibition” value is reported as -15% and the Z score is 1.89.
In the case of `CC1CN(CC(=O)NC2CCCC2)C(C)CO1` (configuration not stated), the “% Inhibition” value is -2% and the Z score was 0.19.
On to `Cc1oncc1-c1csc(-c2ccsc2)n1`, for which the “% Inhibition” value was -10% and the Z score is reported as 1.03.
Take `C[C@H](NCc1cncnc1)c1cc2ccccc2o1`: the “% Inhibition” value was -14% and the Z score was 2.03.
`CCCc1nnc2n1CC1CCC(C2)N1C(=O)CCc1ccccc1` (configuration not stated): the “% Inhibition” value is listed as -11% and the Z score worked out at 1.43.
For `COC[C@@H](O)CCNC(=O)NC1CCC(C)(C)CC1`, the “% Inhibition” value is recorded as -9% and the Z score is 0.96.
For `CNC(=O)C1(N2CCC[C@H]2C(=O)NCCN2CCOCC2)CCCCC1`, the “% Inhibition” value is listed as 13% and the Z score was -1.54.
On the same counts, the results for `CC1CCCCC12NCCN=C2NCc1ccc(F)cc1` (configuration not stated) are 0% and -0.05.
With `COc1ccc(-c2nc3ccc(C(=O)NCc4ccc5c(c4)OCO5)cc3nc2-c2ccc(OC)cc2)cc1`, the “% Inhibition” value was -5% and the Z score is 0.69.
In the case of `CCOC(=O)c1cc(NC(=O)NCCS(C)(=O)=O)c(F)cc1C`, the “% Inhibition” value is 37% and the Z score was -5.37.
Take `CC(=O)c1ccc(S(=O)(=O)Nc2cc(C(=O)O)ccc2N(C)Cc2ccccc2)cc1`: the “% Inhibition” value is reported as -14% and the Z score is on record as 1.38.
Turning to `Cc1noc(NC(=O)COc2ccc(Cl)cc2)n1`, the “% Inhibition” value is given as -7% and the Z score is 0.96.
For `Cc1ccc(C(=O)N[C@H](CO)CN2CCCCC2)n1C`, in that order: -14% and 2.23.
As to `OCCN1CCC2(CC1)OCc1ccccc12`, the “% Inhibition” value is reported as 3% and the Z score was -0.55.
Take `CCOC(=O)C[C@H](N)c1cc(C(F)(F)F)ccc1Cl`: the “% Inhibition” value was -1% and the Z score is 0.14.
For `Cc1ccc(S(=O)(=O)CC(C)NC2CCC23CCCC3)cc1` (configuration not stated), the “% Inhibition” value is recorded as -10% and the Z score was determined as 1.81.
In the case of `O=C(NCc1c(Cl)cccc1-n1ccnc1)C1CCOCC1`, the “% Inhibition” value is -7% and the Z score is recorded as 0.94.
With `C[C@H](C(N)=O)N(C)Cc1ccc(C#N)cc1Br`, the “% Inhibition” value came to 3% and the Z score is on record as -0.26.
On to `Cc1cccc2cc(C(=O)N(CCC(=O)O)CC3CC3)oc12`, for which the “% Inhibition” value is -12% and the Z score stood at 1.84.
On the same counts, the results for `COC[C@H](C)NC(=O)c1cncn1-c1ccc(-c2cc(C(F)(F)F)cc(C(F)(F)F)c2)cc1` are -10% and 1.73.
For the compound `CC(C)(C)CN1C[C@@H](NC(=O)Cc2cccnc2)CC1=O`, the “% Inhibition” value is -12% and the Z score is 2.08.
On the same counts, the results for `Cc1noc(Cn2c(Cl)cccc2=O)n1` are 3% and -0.36.
With `COCc1nc(C(=O)Nc2nc(C)nn2C)cs1`, the “% Inhibition” value is listed as -12% and the Z score came to 1.59.
Take `Cc1ccc(-c2cc3c(N4CCC5(CC4)OCCO5)nccn3n2)c(C)c1`: the “% Inhibition” value is listed as 27% and the Z score was -3.7.
Turning to `c1cc(-c2ccc(-c3cnc4nncn4c3)cc2)[nH]n1`, the “% Inhibition” value is recorded as -1% and the Z score was 0.2.
Turning to `O=C(Nc1ccnn1Cc1c(Cl)cccc1Cl)c1ccccn1`, the “% Inhibition” value amounted to 1% and the Z score was -0.19.
For `CCc1ccccc1NC(=O)C1CCN(S(=O)(=O)c2ccc3c(c2)CCCN3C(=O)C2CCC2)CC1`, the “% Inhibition” value is -19% and the Z score is on record as 3.59.
Turning to `COc1ccc(-c2ccc3c(c2)C(=O)N2CCN(C(=O)[C@@H](O)c4ccccc4)C[C@@H]2C(=O)N3)cc1`, the “% Inhibition” value is on record as -10% and the Z score came out at 1.61.
For `C[C@H](NC(=O)c1ccc(N2CCCCS2(=O)=O)cc1Cl)c1nc2ccccc2n1C`, in that order: 2% and -0.21.
On the same counts, the results for `CN1C(=O)CN(c2cccc(C#N)n2)CC1=O` are -30% and 3.51.
Regarding `CC1CC(C(=O)N2CCC(O)(Cc3ccccn3)CC2)CC(C)(C)C1` (configuration not stated), the “% Inhibition” value is -15% and the Z score was determined as 1.92.
As to `COc1ccc(Cl)cc1-c1cc(C(=O)N2CCOCC2)ccn1`, the “% Inhibition” value was determined as 3% and the Z score is -0.54.
`COCc1nc(Cn2cnc3c(c2=O)CCC3)cs1`: the “% Inhibition” value came out at 4% and the Z score is -0.6.
For `Cc1csc(CNc2nc(C)nn2C)n1`, in that order: -3% and 0.39.
Regarding `CCc1cnc(NCCCN2CCOCC2)nc1`, the “% Inhibition” value is -9% and the Z score is reported as 1.73.
Consider `Cc1cc(F)ccc1-n1cc(C(=O)NC2(C(N)=O)CCCCC2)nn1`, for which the “% Inhibition” value is reported as -6% and the Z score was determined as 1.22.
`Cc1ccc([C@H]2c3ccccc3CCN2C(=O)Nc2ccc(F)cc2F)cc1`: the “% Inhibition” value is given as -9% and the Z score came out at 1.41.
As for `NC(=O)c1c[nH]c(-c2noc([C@@H]3CCCCO3)n2)c1`, the “% Inhibition” value is -11% and the Z score came to 1.19.
`CN([C@@]1(C#N)CCOC1)S(=O)(=O)c1ccccc1Cl`: the “% Inhibition” value is listed as -14% and the Z score was 1.22.
On the same counts, the results for `Cn1nccc1S(=O)(=O)N1CCN(C2CC2)c2ccc(F)cc21` are 6% and -0.75.
As for `CCc1nc(CNC(=O)c2c(Cl)cnn2C)cs1`, the “% Inhibition” value came out at 0% and the Z score is given as -0.03.
On to `CC[C@H](Nc1ccc(OC)cc1)C(=O)O`, for which the “% Inhibition” value is reported as -7% and the Z score is 1.1.
On to `O=C1N(CCCc2ccccc2)CCC[C@@]1(O)CNC1CCCC1`, for which the “% Inhibition” value is -9% and the Z score was 1.12.
Regarding `Cc1cnc(-n2ncc(C(=O)N3CC[C@H](N(C)C)C3)c2-c2cccs2)nc1-c1ccc(F)cc1`, the “% Inhibition” value is -15% and the Z score turned out to be 2.35.
Turning to `COc1ncncc1NC(=O)N1CC(=O)NC(=O)C12CCCCC2`, the “% Inhibition” value was -9% and the Z score worked out at 1.14.
Turning to `Cc1ccc(S(=O)(=O)Nc2ccc(-c3n[nH]c(CNC(=O)OC(C)(C)C)n3)cc2)cc1`, the “% Inhibition” value is reported as -9% and the Z score was determined as 1.
On the same counts, the results for `CCc1c(C)nc(N)nc1NCCOCc1ccccc1` are -5% and 0.66.
Turning to `Cc1c([C@@H]2[C@@H](CNC(=O)N[C@H]3CC[C@H]3c3ccccc3)CC(=O)N2C)cnn1C`, the “% Inhibition” value is listed as 10% and the Z score is listed as -1.91.
With `NC(=O)Cn1ccnc1C1CCN(C(=O)c2cccc3c2NCCC3)CC1`, the “% Inhibition” value is listed as -23% and the Z score is 1.99.
Take `CCN(Cc1nc(C(C)C)no1)C(=O)Cn1c(=O)cnc2ccccc21`: the “% Inhibition” value turned out to be 9% and the Z score is -1.25.
For the compound `CC[C@H](NCCCO)c1cccc(Cl)c1F`, the “% Inhibition” value was -2% and the Z score is 0.2.
For `CCCN(C[C@H]1CCOC1)C(=O)Nc1cccc(F)c1C`, in that order: 0% and 0.05.
As for `CCn1c(-c2ccccc2F)nc2cc(NC(C)=O)cc(C(=O)N[C@H]3CS(=O)(=O)C[C@@H]3O)c21`, the “% Inhibition” value worked out at 1% and the Z score was -0.11.
In the case of `N#Cc1cc(Cl)ccc1NC[C@@H](CO)Cc1ccccn1`, the “% Inhibition” value is on record as -12% and the Z score was 1.32.
With `Cc1cc(NC(=O)N2CCC[C@H](S(=O)(=O)N3CCc4ccccc43)C2)no1`, the “% Inhibition” value is on record as -16% and the Z score worked out at 1.45.
Consider `Cc1cccc(-c2ccc(C(=O)N3CCOCC3)c(=O)[nH]2)c1`, for which the “% Inhibition” value is reported as -4% and the Z score is given as 0.54.
In the case of `CC(C)COC1CCN(C(=O)[C@@H]2Cc3ccccc3O2)CC1`, the “% Inhibition” value is given as 7% and the Z score is recorded as -1.
With `CCN(Cc1nc(C)no1)C(=O)c1cc(Cl)c(C)c(Cl)c1`, the “% Inhibition” value is on record as -5% and the Z score is 1.05.
Regarding `CC(C)(O)CNC1CCC2(CC1)CCN(C(=O)OC(C)(C)C)C2` (configuration not stated), the “% Inhibition” value is listed as -6% and the Z score stood at 1.22.
For `C[C@]1(O)CCN(Cc2cccc(OC(F)F)c2)C[C@H]1O`, the “% Inhibition” value is recorded as -1% and the Z score worked out at 0.1.
On to `O=C(c1ccc(-c2ccccn2)[nH]c1=O)N1CCOC2CCCCC21` (configuration not stated), for which the “% Inhibition” value is on record as -9% and the Z score amounted to 0.86.
Turning to `CC(C)(C)c1csc(CC2CCN(c3nccn4nnnc34)CC2)n1`, the “% Inhibition” value is -15% and the Z score came out at 1.92.
Turning to `CCS(=O)(=O)N1CC(Cc2nc(-c3cccnc3)no2)C1`, the “% Inhibition” value is -6% and the Z score is recorded as 0.78.
On to `O=S(=O)(c1cccc(Nc2nnc(-c3ccc(F)c(F)c3)c3ccccc23)c1)N1CCCC1`, for which the “% Inhibition” value is -17% and the Z score worked out at 2.46.
As for `O=C([C@H]1C[C@H](F)CN1)N1CCN(c2ccc(C(F)(F)F)cc2)CC1`, the “% Inhibition” value is -2% and the Z score came to 0.14.
On the same counts, the results for `COc1cc2c(cc1CN(C)Cc1nc3ccc(F)cc3[nH]1)OCO2` are -5% and 0.67.
As for `CN(CC(O)CO)c1ccnc(N2C[C@@H]3[C@H]4CC[C@H](CC4)[C@@H]3C2)n1` (some centres not stated), the “% Inhibition” value is given as -30% and the Z score amounted to 2.6.
Take `Cc1nc(CNc2ccnc3ccsc23)ccc1[C@H](C)O`: the “% Inhibition” value is on record as -1% and the Z score is 0.14.
For `CCn1ncc(NC(=O)N(C)Cc2cccc(=O)[nH]2)c1C(F)(F)F`, in that order: -18% and 1.99.
As for `CC(C)(C)C(=O)CN1C(=O)N[C@@]2(CCS(=O)(=O)c3ccc(F)cc32)C1=O`, the “% Inhibition” value came out at 5% and the Z score is on record as -0.52.
